# Measured values reported in paper PMC4336329 (PLoS ONE, 2015).
# In all, about 310,000 compounds went through this assay and about 2,200 (0.71%) showed an effect of 50% or more. Effects have a minus sign here. The list shows a part of the results.
# Molecular target: human ether-à-go-go-related gene (hERG) potassium channel (human, UniProt Q12809)
# Assay: primary screen, population patch clamp on CHO cells stably expressing hERG
# Chain of human ether-à-go-go-related gene (hERG) potassium channel (Q12809 whole entry, looked up): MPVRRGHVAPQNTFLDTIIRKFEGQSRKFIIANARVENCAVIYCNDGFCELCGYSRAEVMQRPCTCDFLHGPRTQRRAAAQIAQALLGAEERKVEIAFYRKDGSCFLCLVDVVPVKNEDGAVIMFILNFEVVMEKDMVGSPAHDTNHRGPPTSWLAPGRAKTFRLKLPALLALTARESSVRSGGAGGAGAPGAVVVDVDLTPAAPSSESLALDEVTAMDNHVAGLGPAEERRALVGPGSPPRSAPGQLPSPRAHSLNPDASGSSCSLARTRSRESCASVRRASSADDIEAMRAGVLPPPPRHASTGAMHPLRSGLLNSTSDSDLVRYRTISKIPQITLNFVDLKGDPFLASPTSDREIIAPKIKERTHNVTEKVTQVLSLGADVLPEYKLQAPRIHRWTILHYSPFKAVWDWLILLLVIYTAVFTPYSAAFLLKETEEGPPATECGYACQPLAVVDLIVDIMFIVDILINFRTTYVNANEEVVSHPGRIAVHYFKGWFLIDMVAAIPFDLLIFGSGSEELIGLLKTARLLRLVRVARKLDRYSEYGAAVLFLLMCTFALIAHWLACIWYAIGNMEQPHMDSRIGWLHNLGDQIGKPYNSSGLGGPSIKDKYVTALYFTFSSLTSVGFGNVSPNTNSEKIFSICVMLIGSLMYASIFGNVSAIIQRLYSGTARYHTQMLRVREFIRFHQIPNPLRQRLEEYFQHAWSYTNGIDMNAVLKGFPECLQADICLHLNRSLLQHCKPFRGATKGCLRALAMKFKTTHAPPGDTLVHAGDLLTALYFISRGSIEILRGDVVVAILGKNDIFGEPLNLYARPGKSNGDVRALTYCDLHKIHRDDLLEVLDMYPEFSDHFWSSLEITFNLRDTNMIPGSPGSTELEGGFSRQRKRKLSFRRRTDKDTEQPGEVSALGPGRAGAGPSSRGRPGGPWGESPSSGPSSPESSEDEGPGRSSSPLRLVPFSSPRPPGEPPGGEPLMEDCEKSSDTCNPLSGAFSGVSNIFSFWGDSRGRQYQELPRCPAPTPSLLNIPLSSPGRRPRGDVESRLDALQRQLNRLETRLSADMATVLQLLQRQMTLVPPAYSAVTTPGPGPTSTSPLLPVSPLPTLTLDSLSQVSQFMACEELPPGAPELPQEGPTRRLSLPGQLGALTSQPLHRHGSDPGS
row,Compound,"hERG current change (%, negative = inhibition) at 1uM"
1,CCC(=O)Nc1cccc(C(=O)N(Cc2ccccc2)Cc2ccccc2)c1,13.4%
2,CC1=NNC(=O)C1CCC(=O)N/N=C/C(Br)=C/c1ccccc1 (stereo not drawn),10.2%
3,CCOC(=O)CSc1nc2ccccc2n1CC(=O)N(C(C)C)C(C)C,7.55%
4,CC(C)(C)NC(=O)c1cccnc1Sc1ccccc1,11.2%
5,O=C(CN1CCCCC1)N/N=C/c1ccccc1Br,5.43%
6,CC1CCC/C(=N/NC(=O)c2ccccc2-n2cccc2)C1 (stereo not drawn),6.77%
7,NC(=O)[C@H](Cc1cc2ccccc2s1)NC(=O)[C@@H]1CC2(CC(c3cccc(NC(=O)[C@@H]4CCC(=O)N4)c3)=NO2)CN1C(=O)c1ccccc1 (stereo partly drawn),0.274%
8,COCCNS(=O)(=O)c1cc(-c2nn(C)c(=O)c3ccccc23)ccc1C,7.15%
9,CCOc1ncccc1C(=O)Nc1cccc(Cl)c1Cl,6.95%
10,O=C(CSc1ccccc1)NCc1ccco1,2.28%
11,CCn1nnc(NC(=O)c2ccc(C(C)(C)C)cc2)n1,5.34%
12,Cc1nnc(SCC(=O)NC2CCCCCC2)n1N,8.19%
13,Cc1ccc(NC(=O)N[C@H](C(=O)O)C(C)C)c(C)c1,5.35%
14,Cc1nnc(NC(=O)CCCCCN2C(=O)C3C4C=CC(C4)C3C2=O)s1 (stereo not drawn),-4.44%
15,Cc1ccccc1C(=O)NC1CCN(C(=O)NCc2ccccc2)CC1,6.97%
16,O=C1C2CCCN2C(c2cccc(F)c2)N1c1cccc(Cl)c1 (stereo not drawn),0.302%
17,COc1cccc(-n2c(SCC(=O)N3c4ccccc4CC3C)nnc2-c2ccco2)c1 (stereo not drawn),4.2%
18,COc1cc(CNCCCN2CCOCC2)c(Br)cc1OC(C)C.Cl,14%
19,Cc1cc(C(=O)COC(=O)c2ccc(O)cc2)c(C)n1CC1CCCO1 (stereo not drawn),13.9%

row,Compound,"hERG current change (%, negative = inhibition) at 1uM"
1,Cc1c(C(=O)NCc2ccc(S(N)(=O)=O)cc2)oc2ccc(Cl)cc12,10.4%
2,COc1ccc(/C(N)=N/O)c(OC)c1,8.27%
3,CCc1cc2c(cc3c(=O)n(CC(=O)N4CCN(c5ccccn5)CC4)nc(CC)n32)s1,4.88%
4,CCNC(=S)N1CCN(CCNC2=CC(=O)CC(C)(C)C2)CC1,9.53%
5,O=C(Nc1ccc(S(=O)(=O)N2CCOCC2)cc1)c1ccc(S(=O)(=O)N2CCOCC2)cc1,14.1%
6,CC1CCc2c(sc(NC(=O)CCc3nc4ccccc4c(=O)[nH]3)c2C#N)C1 (stereo not drawn),7.39%
7,CC(C)N1CCC(N2CCN(C3CCCCC3)CC2CCO)CC1 (stereo not drawn),16%
8,N#CCc1c(C#N)c(N)nc(N2CCOCC2)c1C#N,3.29%
9,CCOc1ccc(N(Cc2cc3cc(OC)ccc3[nH]c2=O)S(C)(=O)=O)cc1,13.4%
10,O=C(CN1C(=O)c2ccc([N+](=O)[O-])cc2C1=O)NC1CCCCCC1,14.3%
11,CC(C)CCn1nnnc1C(c1ccccc1)N1CCC(C(N)=O)CC1 (stereo not drawn),10.9%
12,Nc1ccc(Nc2nc3ccccc3[nH]2)cc1,10.3%
13,Br.Clc1ccc2nc(CN3CCCCC3)cn2c1,-8.79%
14,CCC(C)(C)NC(=O)CN(C(=O)CCC(=O)Nc1nccs1)c1ccc2c(c1)OCCO2,12.4%
15,CCS(=O)(=O)N1Cc2ccccc2CC1C(=O)Nc1ccc(F)cc1 (stereo not drawn),3.71%
16,COc1ccc(N2Cc3ccccc3C2)cc1Cl,-11.6%
17,CSc1cccc(NC(=O)Cn2cccc2)c1,5.55%
18,O=c1cnnc(Nc2ccccc2F)[nH]1,13%
19,O=C(CSc1nnc(-c2ccncc2)s1)Nc1ccccc1,10.6%

row,Compound,"hERG current change (%, negative = inhibition) at 1uM"
1,O=C(Nc1cccc(F)c1)c1cc(S(=O)(=O)N2CCC(C(=O)O)CC2)ccc1F,7.97%
2,CCCCCC(=O)Nc1cccc(C2=NOC3(C2)C[C@@H](C(N)=O)N(C(=O)c2ccc(Cl)cc2)C3)c1 (stereo partly drawn),7.05%
3,Cc1ccc(C(=O)N/C(=C\c2cccc([N+](=O)[O-])c2)C(=O)OCN2C(=O)c3ccccc3C2=O)cc1,17%
4,Cc1cccc(Nc2sc(C(=O)c3cc4cc(Cl)ccc4o3)c(N)c2C#N)c1,2.48%
5,COc1ccc2c(c1)CC/C(=C\c1ccc(OC)c(Cn3nc(C)cc3C)c1)C2=O,7.34%
6,CCOC(=O)c1ccc(-n2ncc(C(=O)OCC)c2N)cc1,4.94%
7,CCOC(=O)/C(C#N)=C/Nc1ccccc1NS(=O)(=O)c1ccc(C)c(C)c1,10.5%
8,O=C(Nn1cnnc1)c1ccc(Cl)c(Cl)c1,19.7%
9,O=C(Sc1ccc(Cl)cc1)c1ccccn1,16.3%
10,O=C(CSc1nnc(NC(=O)c2ccco2)s1)Nc1ccccc1Cl,18.4%
11,NC(=O)CC(NC(=O)Cc1cccc2ccccc12)c1ccc(NCc2cc(F)ccc2F)c([N+](=O)[O-])c1 (stereo not drawn),11.5%
12,Cc1cccc(OCCNC(=O)c2ccc(Oc3ccc(C(F)(F)F)cc3[N+](=O)[O-])cc2)c1,16.3%
13,O=C(CCc1nc2ccccc2[nH]1)N1CCc2ccccc2C1,-3.88%
14,C=C(CCC(=O)c1ccccc1)C(=O)c1ccccc1,17.5%
15,O=C1c2ccccc2C(=O)C1c1ccccc1,6.99%
16,CC(=O)NC(c1cccs1)c1cc(Cl)c2ccccc2c1O (stereo not drawn),3.34%
17,CCOC(=O)c1c(C)[nH]c(C(=O)C(C)Sc2ccc(Cl)cc2)c1C (stereo not drawn),9.6%
18,COc1ccc(NC(=O)CSc2nnc(NC(=O)c3ccc(S(=O)(=O)N4CCOCC4)cc3)s2)cc1,20.2%
19,CCCc1ccc(O)c(N=Cc2cc(Br)cc(OCC)c2O)c1,-9.54%
